Results as given in article PMC4673895 (DNA repair, 2015).

Molecular target: his6-TDP1 (human tyrosyl-DNA phosphodiesterase, wild type) (human, UniProt Q9NUW8)
Assay: pull-down

- binding result: binds
B1: MBP-XLF-K293A (natural protein)
chain: not shown
